According to PubChem BioAssay AID504832 (National Center for Advancing Translational Sciences (NCATS), 2011):
In all, about 310,000 compounds went through this assay and about 18,000 (5.8%) were called active. Inconclusive means that the source gave no clear call. Such entries were picked first, then a sample of the others. The call rests on the fitted dose curve; in most records, active means well fitted inhibition curve with a large enough effect; inconclusive means small, poorly fitted or top-dose-only effect, or another doubt; inactive means no such curve, though single readings can be large or run the other way. Potencies of inconclusive entries are left out as doubtful fits.

test: Primary qHTS for delayed death inhibitors of the malarial parasite plastid, 48 hour incubation; settings: P. falciparum luciferase growth in erythrocytes; series mostly up to 28.7 µM
In short: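 Luminescence readout; reporter = integrated firefly luciferase in P. falciparum. RBC culture at 2% hematocrit, 0.1% parasitemia final, 37 C/5% CO2; decreased signal taken as growth inhibition.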
Potency means the concentration at half of the fitted maximal effect; tags describe the fitted curve by direction and shape.

SMILES	Potency
Nc1c(Cl)ncnc1N/N=C/c1ccncc1	inactive
Cc1ccc(S(=O)(=O)N2CCCC2C(=O)NCc2ccc3c(c2)OCO3)cc1 (stereo not drawn)	inconclusive [inhibitor, partial curve, poor fit]
CCCc1nc(SCC(=O)c2ccccc2)c2c(=O)n(C)c(=O)n(C)c2n1	inconclusive [inhibitor, single point]
CCOc1ccc(C(=O)CCC(=O)Nc2ccc(C)cn2)cc1	inconclusive [inhibitor, single point]
Cc1ccc(CS(=O)(=O)c2cn(CC(=O)Nc3ccon3)c3ccccc23)cc1	inactive
O=C(NC(CO)(CO)CO)[C@@H]1CCCN1S(=O)(=O)c1cccc2cccnc12	inactive
COc1ccc(C(=O)C2CCCN(Cc3ccc(C#CCCO)cc3)C2)cc1F (stereo not drawn)	inconclusive [inhibitor, full curve, poor fit]
Cn1c(C(=O)N2CCCc3ccccc32)cc2c(=O)n3ccccc3nc21	inconclusive [inhibitor, single point]
COc1cc(CNC2CCCCCCC2)c(Br)cc1OCCO	inconclusive [inhibitor, single point]
CC(C)c1ccc(NC(=O)CSc2nc(=O)n(CCCN3CCOCC3)c3c2CCCC3)cc1	inconclusive [inhibitor, single point]
Cc1occc1-c1nnc(SCC(=O)c2c[nH]c3ccccc23)n1C	inconclusive [inhibitor, single point]
O=C(c1cn[nH]c1)N1CCc2c([nH]c3ccccc23)C1c1c(F)cccc1Cl (stereo not drawn)	inconclusive [inhibitor, partial curve, poor fit]
O=S(=O)(c1ccc(-c2csc(=Nc3ccccc3)n2CCCN2CCOCC2)cc1)N1CCOCC1	inconclusive [inhibitor, partial curve]
O=C(/C=C/c1ccco1)NC(=S)Nc1cccc(-c2nc3ccccc3o2)c1	inactive
COc1ccc(C(=O)NC2CCN(C(=S)Nc3ccc(C)c(C)c3)CC2)cc1	inactive
Cc1ccccc1OCC(=O)N/N=C/c1ccccn1	inactive
CCCCC(=O)N=c1sc2cc([N+](=O)[O-])ccc2n1C	inconclusive [inhibitor, single point]
COc1ccc(OCC(=O)N2CCN(C(=O)c3ccco3)CC2)cc1	inconclusive [inhibitor, full curve, poor fit]
CN(C)c1ccc(C(=O)OCC(=O)Nc2ccc(N3CCOCC3)cc2)cc1	inconclusive [inhibitor, single point]
CCOc1cccc2sc(N(CCN(CC)CC)C(=O)c3cccc([N+](=O)[O-])c3)nc12	inconclusive [inhibitor, single point]
COc1cccc(CNC(=O)CSCc2cnn(-c3ccccc3)c2-n2cccc2)c1	inconclusive [inhibitor, single point]
CC(C)=CCN1CCN(C/C(Cl)=C/c2ccccc2)CC1CCO (stereo not drawn)	inconclusive [inhibitor, single point]
C=CCNC(=O)CCCOc1cc(C)ccc1C	inconclusive [inhibitor, single point]
COC(=O)c1sc(-c2ccc(Cl)cc2)cc1NC(=O)COCC(=O)O	active: 2.08 µM
N#Cc1nc(COc2ccccc2)oc1N1CCC(Cc2ccccc2)CC1	active: 9.28 µM

SMILES	Potency
COc1ccc(N2CCN(C(=S)Nc3ccccc3)CC2)cc1	inactive
COc1ccc(-c2noc(CN3CCN(c4ccccc4F)CC3)n2)cc1OC	inactive
O=C1/C(=C/c2cccnc2)SC(=S)N1N1CCOCC1	inconclusive [inhibitor, single point]
CC[C@@H](CO)NC(=O)[C@@H]1C=C2c3cccc4[nH]cc(c34)C[C@H]2N(C)C1	inconclusive [inhibitor, single point]
CN1/C(=C\C=Nc2ccccc2)C(C)(C)c2ccccc21	inconclusive [inhibitor, single point]
COc1cc(OC)c(OC)cc1CNCCSc1nnnn1C	inactive
Cc1ccc(C2C3=C(CC(C)(C)CC3=O)Nc3onc(C)c32)cc1 (stereo not drawn)	inconclusive [inhibitor, single point]
COc1ccccc1N1CCN(C(=O)Cn2nc(C(F)(F)F)c3c2CCC3)CC1	inactive
CCOC(=O)CCc1c(C)c2ccc(OCC(=O)OC(C)C)cc2oc1=O	inactive
OCCCc1nc2ccccc2[nH]1	inconclusive [inhibitor, full curve, poor fit]
COc1ccc(OC)c(C2NC(=O)NC(C)=C2C(=O)OCc2ccccc2)c1 (stereo not drawn)	inactive
O=C1CCC/C1=C/Nc1ccc(Cl)cc1	inactive
CCOc1ccc(N=C(NN)c2ccc3ccccc3n2)cc1	inactive
Fc1ccccc1Sc1ccccc1CNC1=NCCN1	inconclusive [inhibitor, single point]
CCOC(=O)c1ccc(Oc2nc(NC)nc(SC)n2)cc1	active: 3.7 µM
O=[N+]([O-])c1cc(C(F)(F)F)cc([N+](=O)[O-])c1Sc1n[nH]c(C(F)(F)F)n1	active: 5.22 µM
COc1ccc(C(=O)Nc2ccc(NC(=O)c3cccc(OC)c3)cn2)cc1	inconclusive [inhibitor, partial curve]
COc1ccc(C2CC(C)(c3ccc(OC)cc3)Nc3ccccc3N2)cc1 (stereo not drawn)	inconclusive [inhibitor, single point]
O=C(c1ccco1)N1CCN(c2c(-c3ccccc3)c3cc(Cl)ccc3[nH]c2=O)CC1	inconclusive [inhibitor, single point]
CN=c1scc(-c2ccccc2F)n1/N=C/c1ccc(O)c(O)c1O	inconclusive [inhibitor, single point]
COC(=O)[C@H]1[C@H]2C[C@@H]3c4[nH]c5ccccc5c4CCN3C[C@H]2C[C@@H](OC(=O)c2cc(OC)c(OC)c(OC)c2)[C@@H]1OC	active: 0.379 µM
COc1ccc(-c2cc(C(=O)OCC(=O)Nc3ccc4c(c3)OCO4)c3ccccc3n2)cc1	inactive
COc1cccc(C(=O)CSc2nnc(-c3ccco3)n2CC2CCCO2)c1 (stereo not drawn)	inactive
CCCN1Cc2cccc(C(=O)NC(CC(=O)OCC)c3ccc(OCC)c(OC)c3)c2C1=O (stereo not drawn)	inconclusive [inhibitor, partial curve, poor fit]
O=C(CCN1CCN(Cc2ccccc2)CC1)Nc1cccc(Br)c1	inactive

SMILES	Potency
COc1cccc(CCNC(=O)CC2C(=O)NCCN2CC(C)(C)C)c1 (stereo not drawn)	inactive
Cn1c(=O)n(Cc2ccc(F)cc2)c(=O)c2c1nc1n2CCCN1Cc1ccccc1	active: 2.08 µM
C/C(=N\NC(=S)NCCc1ccccc1)c1cccs1	inconclusive [inhibitor, single point]
O=C(O)CCCCCCCCCCP(=O)(c1ccccc1)c1ccccc1	inconclusive [inhibitor, single point]
Cc1ccccc1C(=O)NC1CCN(C(=O)N(c2ccccc2)c2ccccc2)CC1	inconclusive [inhibitor, single point]
COCCNc1cc(C)c(C#N)c2nc3ccccc3n12	inconclusive [inhibitor, partial curve, poor fit]
CC(C)C(=O)NNC(=O)c1ccccn1	inconclusive [inhibitor, single point]
Cc1csc(CNC(=O)C2CCC(=O)N(CCCc3ccccc3)C2)n1 (stereo not drawn)	inactive
COc1ccc(C(C)=O)c(Oc2ccc(S(=O)(=O)N3CCOCC3)cn2)c1	active: 8.28 µM
CCCCCCC(=O)N1CCC(c2nc3c(nnn3Cc3ccccc3Cl)c(=O)[nH]2)CC1	active: 13.1 µM
COC(CNC(=O)CCCn1nnnc1CN1CCOCC1)c1cccs1 (stereo not drawn)	inactive
CCC(=O)NC(=S)Nc1ccc(S(=O)(=O)NC(C)C)cc1	inactive
CC/C(C)=N\N=C\c1c(O)n(CC)c2cc(C3=NNC(=O)CC3)ccc12	inconclusive [inhibitor, single point]
COc1ccc(-c2noc(CN(C)C(=O)c3ccoc3C)n2)cc1OC	inactive
COCCN(C(=O)CC(C)(C)C)c1nnc(-c2cccnc2)s1	inconclusive [inhibitor, single point]
c1ccc(-c2cn(-c3ccccc3)c3[n+]2CCCS3)cc1	inconclusive [inhibitor, full curve]
CCN1C(=O)[C@@H]2[C@H](C1=O)[C@@H]1C(=O)Nc3ccccc3C(=O)N1[C@@H]2c1ccc(OC)cc1	inconclusive [inhibitor, full curve, poor fit]
COc1cccc(N(C)C(=S)Oc2ccc3c(c2)CCCC3)n1	inconclusive [inhibitor, single point]
CC1(C)CC(N2CCCC2)=CC(=[N+]2CCCC2)C1	active: 1.47 µM
O=C(Cc1sc(-c2ccccc2Cl)nc1-c1ccccc1)Nc1ccc(F)cc1	inconclusive [inhibitor, single point]
O=c1oc(-c2cccs2)nc2sc3c(c12)CCC3	inactive
O=C(c1ccc(-n2c(SCc3cc(F)ccc3F)nc3ccccc3c2=O)cc1)N1CCOCC1	inconclusive [inhibitor, single point]
N#CCC(=O)N/N=C/c1cn(Cc2cccc3ccccc23)c2ccccc12	inconclusive [inhibitor, partial curve]
